# Assay results published in the supplement of paper PMC3334620.
# In all, about 33,000 sequences were measured (“E-score (-0.5 to 0.5)”: median about -0.04, highest 2% from about 0.36 on). The list shows a part of the results.
# Molecular target: T1, Hmlalpha2 (UniProt P0CY09)
# T1 sequence: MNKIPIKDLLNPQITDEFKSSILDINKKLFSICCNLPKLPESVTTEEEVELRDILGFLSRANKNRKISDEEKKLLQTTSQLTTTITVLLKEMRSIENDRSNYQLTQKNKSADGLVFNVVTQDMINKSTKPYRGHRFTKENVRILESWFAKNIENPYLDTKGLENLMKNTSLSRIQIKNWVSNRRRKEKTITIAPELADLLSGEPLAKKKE
# Experiment: PBM E-score (8-mer binding enrichment) (E-score (-0.5 to 0.5)); higher = stronger / more preferred TF binding; most listed sequences are background and not binding sites
# Conditions: protein concentration: 200 nM; construct: GST-full length
# Method in brief: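 Universal all-10-mer Agilent arrays, fresh or stripped once, were converted to double-stranded form by primer extension. GST-tagged yeast transcription factors from PURExpress in vitro transcription/translation, full-length or DNA-binding domain only, were applied at about 100-200 nM and detected with fluorescent anti-GST. After masliner normalisation, the Universal PBM Analysis Suite scored each ungapped eight-base word together with its reverse complement by E-score.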
row,Sequence,PBM E-score
1,GAACGCAA,0.114
2,ACGGAAAT,0.161
3,CTTGCGAA,0.184
4,ACTGCGTC,0.0279
5,ACTCGTTC,0.141
6,ATCGTCGG,-0.285
7,CTTGCATC,-0.144
8,ATGCCGCC,-0.0688
9,AGTATAGG,-0.226
10,CTAATAAC,0.203
11,CCAGCGAC,-0.0419
12,CATGCAAC,0.228
13,AAAAGACC,-0.185
14,ACTCTTTA,0.129
15,AATGCGTA,0.281
16,GTGCGTGA,0.192
17,AGCGACTA,0.0805
18,CTCGCGCC,-0.186
19,CAAGGCTA,0.0464
20,ACATCCTA,0.127
21,AAGTAGGT,0.0392
22,GTGTAAAA,0.467
23,ATTTTAAA,0.164
24,ATGCGGGA,-0.0343
25,CTCCTATC,-0.139

row,Sequence,PBM E-score
1,GGTCTATA,0.121
2,AGTGGGCC,-0.171
3,AGTGCTTA,0.0606
4,CTTGCCAC,-0.172
5,GTTGGGCA,0.0913
6,GGTATTGA,-0.045
7,GCCTTTAC,0.213
8,AATACACT,0.326
9,CCAGGCAG,-0.272
10,CCCTGCCA,-0.217
11,AAATCGTT,0.0182
12,ACAAATAG,0.161
13,CACCCCAA,0.0467
14,CCCGTTTA,0.123
15,ACGTTTTA,0.266
16,GACTATAC,-0.00437
17,TACCTTAA,-0.0463
18,CAGTCAGA,-0.0744
19,ACAGAGCT,0.0441
20,CCGGGGGC,-0.224
21,CCGTATAA,0.0386
22,ATTAAGAA,0.193
23,ACAGAGTA,0.226
24,ATCGCCTA,-0.285
25,GGGTACCA,-0.0469

row,Sequence,PBM E-score
1,ATCCAGAA,0.129
2,AATAAGGC,-0.158
3,GAGAAATA,0.13
4,GGACCTCC,-0.192
5,ATTCTCCC,-0.066
6,CAGTCTGA,-0.214
7,CGGTCGAA,-0.116
8,GCATTAGC,-0.217
9,CTTTGAAC,-0.0263
10,AAGTCAAG,-0.197
11,CCATTCCG,-0.225
12,ATGTTCTG,0.194
13,TCAAACAA,0.217
14,CACTTCAC,0.0895
15,AGCGCAAC,-0.083
16,CGGATTGC,-0.163
17,GCTATTGA,0.0255
18,CATTGTTC,0.182
19,AAAGTGCC,-0.179
20,AATAGCCG,-0.0462
21,ACTTCATA,0.019
22,CACGGATA,0.118
23,ACAGTGCA,0.00831
24,ACACATAT,0.317
25,CACTAAGG,-0.255

row,Sequence,PBM E-score
1,CTGAGGTA,-0.013
2,GCGTGATA,0.0582
3,CAATGACC,-0.169
4,GCGTGTTA,0.46
5,CCACTTTA,-0.136
6,CCCTAACG,-0.0128
7,CCAAATTA,0.192
8,AAACCGAA,-0.0136
9,GTTGCTTA,0.0629
10,CGAGTTTA,-0.0376
11,AACTTTGC,0.0158
12,AACATCCG,0.203
13,TCAGCTGA,0.113
14,ACCATCCG,-0.207
15,ATGAGCAG,0.00596
16,ACTTTGCG,-0.0412
17,ATGCCGGG,-0.146
18,CCTACACA,0.266
19,ACCCATCG,-0.101
20,AATTATAC,0.155
21,AAAAGAGA,-0.151
22,ACGGTAGA,-0.22
23,CGGATGAG,-0.179
24,AGACAACG,0.123
25,ACGTGTCT,0.193

row,Sequence,PBM E-score
1,CCGAGGAA,-0.098
2,GCCTCGCA,-0.259
3,AATCCACT,-0.029
4,CTAAGGCC,-0.194
5,CATGTAAG,0.47
6,CACAAGTA,0.101
7,AGAGATCG,-0.168
8,AACCGCTC,-0.0841
9,AGAAGCAA,0.0263
10,AGGATTGG,-0.0838
11,CCCAACCG,-0.285
12,ACAATACG,0.22
13,CGACTTCA,-0.0985
14,ACACACTG,0.159
15,ACCATCGC,0.0727
16,ACTTTTGA,0.0828
17,TCTTAGAA,0.0836
18,CACTTATA,-0.011
19,GGAGAGTA,-0.252
20,ACTGCAAG,-0.041
21,CCAGAGTA,-0.121
22,CTGCCAGC,-0.238
23,GCGTATAA,0.337
24,GTAGACAA,0.255
25,CATATTCG,-0.065

row,Sequence,PBM E-score
1,AGTTTGTC,0.0591
2,AGTTACCG,0.155
3,ACGGTATG,0.0304
4,ATCGCTAC,-0.0269
5,AAATCAAA,0.073
6,TGAACCAA,0.171
7,ACATCAAG,0.227
8,CTGATCCA,0.0644
9,ATCTATAG,-0.052
10,AACTCCGG,0.00054
11,GAGTGCTA,-0.0626
12,CGCGCTCC,-0.0594
13,GCGGGTCC,-0.198
14,CGTCCTTA,-0.133
15,GCTATTCC,-0.108
16,AACAAGCC,0.133
17,AAAGAGCG,-0.0726
18,GCCCCACA,-0.224
19,GAAGGAGC,-0.396
20,ACATCTGG,-0.0314
21,CTCCACGA,-0.0917
22,CCAGGGCG,-0.184
23,ATGCCTTG,0.00843
24,GAATTGAC,0.104
25,AATATAGG,-0.00425

row,Sequence,PBM E-score
1,TCGAACAA,0.14
2,CTGGCTCA,-0.164
3,CGTGGGAC,-0.0917
4,ACCTCCTC,-0.127
5,CCCTTCTC,-0.337
6,GAATCTCC,-0.16
7,CGCATCGC,-0.212
8,CCGAAAGA,-0.201
9,CTTGTGTA,0.41
10,ATTGATGG,0.08
11,CGACGGAG,-0.22
12,CACCGGTG,-0.363
13,CCTACGAA,-0.0968
14,CCGTTCAC,-0.167
15,GAAGGTCA,-0.0603
16,CAGCGCGG,-0.0131
17,ATCGTCGC,0.0996
18,ATCCTCCG,-0.311
19,CGACACTC,0.00542
20,CTAGTAAC,0.027
21,GACAATAA,0.113
22,GACCCGCA,-0.146
